Data: PubChem BioAssay AID1240 (Sanford-Burnham Center for Chemical Genomics, 2008)
In all, about 50,000 compounds went through this assay and about 800 (1.6%) showed an effect of 50% or more. Some of the results follow.

Each molecule was assayed against Bcl-2-like protein 10 (Homo sapiens) (UniProt Q9HD36) (assay: Phenotype converters, Bcl-B/TR3 peptide binding displacement, primary biochemical FP (AID 1240;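 also: 0% = Bcl-B with tracer peptide and DMSO and 100% = tracer peptide lacking Bcl-B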)). Conditions: GST-Bcl-B / FITC-TR3 peptide fluorescence polarization; stronger effect = higher value; compound at 3.75 mg/L.
Chain of UniProt Q9HD36 (Q9HD36 whole entry, looked up): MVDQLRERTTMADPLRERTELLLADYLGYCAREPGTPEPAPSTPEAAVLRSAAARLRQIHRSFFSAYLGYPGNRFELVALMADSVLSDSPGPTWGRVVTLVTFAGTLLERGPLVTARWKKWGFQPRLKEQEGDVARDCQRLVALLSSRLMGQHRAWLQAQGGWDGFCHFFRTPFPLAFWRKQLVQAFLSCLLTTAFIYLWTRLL
`COc1cccc(N2C(=O)/C(=C/c3ccccc3Cl)SC2=S)c1` gave a displacement of 17.6%.
In the case of `O=C1CC(c2ccccc2)CC2=C1C(c1cccnc1)N(C(=O)c1ccccc1)c1ccccc1N2` (stereo not given), the displacement was -15.8%.
Molecule `COc1cccc(C2C(C(C)=O)=C(O)C(=O)N2CC2CCCO2)c1` (stereo not given) has a displacement of -1.4%.
With `CCc1ccc(/C=N\NC(=O)C2CC(=O)N(c3ccc(OC)cc3)C2)cc1` (stereo not given) the displacement was 2.1%.
`CC(C)(C)NC(=O)Nc1ccc2nccnc2c1` showed a displacement of 14%.
`CN(C)c1ccc(C2/C(=C(\O)c3ccccc3)C(=O)C(=O)N2CCCC(=O)O)cc1` (stereo not given) showed a displacement of 3%.
With `O=C1OC(Oc2ccccc2)(c2ccccc2)c2ccccc21` (stereo not given) the displacement was 23%.
Work on `Cc1cc(Cl)ccc1NS(=O)(=O)c1ccc([N+](=O)[O-])cc1` yielded a displacement of 5.2%.
With `CCOC(=O)C1=C(O)/C(=C/c2ccc(-c3ccccc3)cc2)SC1=Nc1ccc(OC)cc1` the displacement was -6%.
Work on `O=C(COc1ccccc1Cl)NNC(=O)c1ccc(O)cc1O` yielded a displacement of -22.6%.
`Cn1ccnc1SCC(=O)Nc1cccc(C(F)(F)F)c1` showed a displacement of 14.7%.
`O=C(COc1ccccc1[N+](=O)[O-])Nc1cc(Cl)cc(Cl)c1` gave a displacement of 11.1%.
Molecule `COc1cc2ccccc2cc1C(=O)Nc1ccc(Cl)c(Cl)c1` has a displacement of -6%.
Molecule `COc1ccc(OC)c(S(=O)(=O)NCc2ccco2)c1` has a displacement of 13.4%.
`CC(C)(C)C(=O)NC(=S)N1CCOCC1` showed a displacement of -4.7%.
For `COc1ccc(C(=O)/C=C/c2cccc(Cl)c2Cl)cc1`, the displacement was 2.1%.
Molecule `O=C1OCC(CO)(CO)N=C1NNc1ccc([N+](=O)[O-])cc1` has a displacement of 7.3%.
`CC(C(=O)Nc1ccc(I)cc1)N1C(=O)c2ccccc2C1=O` (stereo not given) showed a displacement of -5.5%.
Molecule `COc1ccc(C(=O)Nc2ccc3oc(-c4ccc(OC)c(Cl)c4)nc3c2)cc1Cl` has a displacement of 49.2%.
With `COc1ccc(C2/C(=C(/O)c3ccccc3)C(=O)C(=O)N2CC2CCCO2)cc1OC` (stereo not given) the displacement was -4.9%.
For `O=[N+]([O-])c1cc(Cl)cc2c1[nH]c1ccc(Cl)cc12`, the displacement was 7.1%.
Work on `COc1ccc(Br)cc1CN1CCN(C2CC3CCC2C3)CC1` (stereo not given) yielded a displacement of -18.2%.
`CCOCCOC(=O)c1ccc(NC(=O)c2ccc([N+](=O)[O-])cc2Cl)cc1` gave a displacement of -6.5%.
With `COc1cc(C=C2C(=O)NC(=S)NC2=O)cc(Br)c1OCCOc1ccc(C)c(C)c1` the displacement was 8.1%.
Molecule `COc1ccc(C(=O)N2CC3(CCCC3)c3ccccc3C2C)cc1OC` (stereo not given) has a displacement of -21.3%.
`CCC(=O)N1c2ccccc2NC2=C(C(=O)CC(c3ccco3)C2)C1c1ccc(N(CC)CC)cc1` (stereo not given) showed a displacement of -5.8%.
With `O=C(Cn1c(NCCO)nc2ccccc21)c1ccc(Cl)c(Cl)c1` the displacement was -5.9%.
`COCCOC(=O)c1c(C)oc2ccc(OCc3c(F)c(F)c(F)c(F)c3F)cc12` gave a displacement of 10.8%.
`O=C(CCN1C(=O)c2ccccc2C1=O)NC1CCCCCC1` was tested, and the displacement was 8.5%.
`Cc1ccccc1NC(=O)c1c(C)[nH]c(=S)c(C#N)c1-c1cccc(F)c1` gave a displacement of -11.1%.
`COc1cccc(C2NC(=O)NC(C)=C2C(=O)OCCOc2ccccc2)c1OC` (stereo not given) showed a displacement of -3.7%.
`Cc1ccc(-c2nc3cc(Cl)ccc3o2)cc1NC(=O)c1ccc(-c2ccc([N+](=O)[O-])cc2)o1` was tested, and the displacement was 0.9%.
With `COc1cc(C2OCC3(CCC4(COC(c5ccc(O)c(OC)c5)OC4)C3=O)CO2)ccc1O` (stereo not given) the displacement was 11.1%.
For `CC1SC(c2c(Cl)cccc2Cl)N(CCCN(C)C)C1=O` (stereo not given), the displacement was 2.3%.
Work on `O=S(=O)(/N=C/c1ccc(Br)cc1)c1cccs1` yielded a displacement of -4.5%.
`Cc1ccc(C(=O)Nc2ccccc2Oc2ccccc2)o1` gave a displacement of 13.2%.
For `Cc1ccc(C(=O)N/C(=C\c2ccccc2)C(=O)NCc2ccncc2)cc1`, the displacement was 5.9%.
With `COc1ccccc1C(=O)N1CCN(c2nc3ccc([N+](=O)[O-])cc3s2)CC1` the displacement was -14%.
Molecule `Cc1cccc(OCC(=O)Nc2ccccc2Cl)c1C` has a displacement of -1.5%.
`O=C1NC(=O)/C(=C\c2ccc(OCc3ccc(F)cc3)cc2)N1` gave a displacement of -34.4%.
Work on `CCOC(=O)C1=NN(C(=O)c2ccc([N+](=O)[O-])cc2)C(O)(C(C)(C)C)C1` (stereo not given) yielded a displacement of -7.9%.
`C=CCNC(=O)/C(=C\C=C\C)NC(=O)c1ccccc1` showed a displacement of 11.1%.
Work on `CS(=O)(=O)N(Cc1ccccc1)c1ccc(C(=O)NCc2ccc(Cl)cc2)cc1` yielded a displacement of -5%.
`COc1ccc(S(=O)(=O)NC2CCSC2=O)cc1` (stereo not given) was tested, and the displacement was -11.6%.
`CCN(CC)c1ccc(C(=O)Nc2cccc(C)c2C)cc1` was tested, and the displacement was 8%.
`CC1(C)C(c2ccccc2)=NC(c2ccccc2F)=[N+]1[O-]` gave a displacement of -2.8%.
Work on `O=C(c1cccn1C(O)(C(F)(F)F)C(F)(F)F)C(F)(F)F` yielded a displacement of 3.8%.
In the case of `Cc1ccc(C(C)C)c(OCCOc2ccccc2/C=C2/SC(=S)N(C)C2=O)c1`, the displacement was 0.1%.
Work on `O=C1NC(=S)N/C1=C/c1ccc(OCc2cccc(C(=O)O)c2)cc1` yielded a displacement of 11.7%.
Work on `O=C(CSc1nnnn1-c1ccccc1)Nc1ccccc1O` yielded a displacement of -4%.
`COc1ccc(NC2CC(=O)N(CCc3ccccc3)C2=O)cc1` (stereo not given) showed a displacement of 15.1%.
`O=C(Nc1cccc(-c2csc(-c3ccccc3)n2)c1)c1cc2ccccc2oc1=O` gave a displacement of 11.6%.
In the case of `COc1cccc(OC)c1C(=O)NNC(=O)c1cccc(C)c1`, the displacement was -1.3%.
For `Cc1cc(C(=O)N/N=C/c2c(F)cccc2Cl)n[nH]1`, the displacement was 0.4%.
For `CCc1ccc(C2Nc3cccc4cccc(c34)N2)cc1`, the displacement was 30.8%.
In the case of `CC(C)N1CCC(=NNC(=O)COc2ccc(Cl)cc2Cl)CC1`, the displacement was -7.8%.
With `COC(=O)c1ccc(C(=O)OC)c(NC(=O)Nc2ccc(Cl)c(Cl)c2)c1` the displacement was 1.7%.
Molecule `COC(=O)c1c(N=CN(C)C)c(C#N)c2n1CCCCC2` has a displacement of 0.3%.
For `CN(C(=O)c1cccs1)c1ccccc1`, the displacement was -16.1%.
`CCOC(=O)c1c(C)[nH]c(/C=C(/C#N)C(N)=NCc2ccccc2)c1O` gave a displacement of 4.3%.
With `Fc1cnc(N2CCOCC2)nc1N1CCOCC1` the displacement was -5.7%.
Work on `Cc1ccc(S(=O)(=O)N(CC(O)CN2CCCCC2)c2cccc3ccccc23)cc1` (stereo not given) yielded a displacement of -3.3%.
Work on `COc1ccc(OC)c(/C=N/N=C2\NC(=O)C(C)S2)c1` (stereo not given) yielded a displacement of -13.9%.
`CSc1ccc(S(=O)(=O)N(CC(=O)Nc2c(C)cccc2C)c2ccc(C)cc2)cc1` showed a displacement of 7.9%.
For `Cc1coc2cc3oc(=O)cc(C)c3cc12`, the displacement was -2%.
In the case of `Cc1nc(SCC(=O)C2CC2)c(C#N)c(C)c1C`, the displacement was -1.6%.
Molecule `C=CCN(c1ccccc1C(=O)O)S(=O)(=O)c1ccc(C)cc1` has a displacement of 1%.
`O=C(Cc1ccccc1)NC(=S)N1CCCc2ccccc21` gave a displacement of 19.7%.
`COC(=O)c1c(C)oc2cc(Br)c(OC)cc12` showed a displacement of 12.7%.
With `O=C(NCCc1cccc(Cl)c1)c1cccnc1` the displacement was 14.8%.
Molecule `O=C(/C=C/Nc1ccccc1C(F)(F)F)c1ccc(Br)cc1` has a displacement of -3.8%.
`O=C(NCc1ccccn1)Nc1ccc(Cl)cc1` was tested, and the displacement was 11.4%.
`CCCCCSc1nnc2c(n1)[nH]c1ccc(C)cc12` showed a displacement of 1.8%.
`Cc1cc(C)cc(NC2=C(Cl)C(=O)N(c3ccc(Br)cc3)C2=O)c1` showed a displacement of 9%.
Work on `O=C(Nc1cccnc1)c1cccc([N+](=O)[O-])c1` yielded a displacement of -4.6%.
Work on `COc1ccc(CCNC2CC(=O)N(c3ccc(OC)cc3)C2=O)cc1` (stereo not given) yielded a displacement of 6.4%.
In the case of `CCOc1ccc(N=Cc2cc(Cl)ccc2OC)cc1`, the displacement was 3%.
`C=C(CC(Cc1ccccc1)C(=O)O)c1ccccc1` (stereo not given) showed a displacement of -7.4%.
`CCOP(=O)(OCC)C(C)(CC)NC(=S)Nc1c(C)cc(C)cc1C` (stereo not given) showed a displacement of 13.5%.
`Cc1ccc(/C=C/C(=O)NC2CCS(=O)(=O)C2)cc1` (stereo not given) gave a displacement of -4.5%.
`C/C(=C/C(=O)NCc1ccccc1)C(=O)O` showed a displacement of 4.2%.
`CCc1cccc(CC)c1NC(=O)c1ccc(-c2ccccc2)cc1` gave a displacement of -4.5%.
`C=CCOc1ccc(/C=C2\C(=O)N(CCCOC)C(C)=C2C(=O)OC)cc1OC` was tested, and the displacement was -4.2%.
`CCOc1ccc(-c2cc(C)n3nc(C(=O)Nc4cc(OC)c(Cl)cc4OC)cc3n2)cc1` was tested, and the displacement was -1.3%.
`C=CCn1cnnc1C(CCC(C)C)CC(C)(C)O` (stereo not given) gave a displacement of 0.3%.
In the case of `Cc1cc(C)nc(/N=C(/N)Nc2ccccc2[N+](=O)[O-])n1`, the displacement was -9.6%.
In the case of `COc1ccc(NC(=O)COc2ccc(Br)c(C)c2)cc1Cl`, the displacement was -7.9%.
In the case of `Cc1ccc(OCCOCCOc2ccc(Br)cc2/C=N\NC(=O)c2ccncc2)cc1`, the displacement was -17.9%.
Work on `CCOC(=O)c1ccc(NC(=O)CCN2C(=O)S/C(=C/c3ccc(OC)c(OC)c3)C2=O)cc1` yielded a displacement of 34.5%.
Work on `COc1ccc(C(=O)Oc2ccc3c(c2)C(C)=CC(C)(C)N3)cc1` yielded a displacement of -7.9%.
`CCCOc1ccc(-c2cc(C(=O)NCC3CCCO3)c3ccccc3n2)cc1` (stereo not given) showed a displacement of 9.2%.
`O=C(c1cnn2c1NC(c1ccco1)CC2C(F)(F)F)N1CCN(Cc2ccccc2)CC1` (stereo not given) was tested, and the displacement was -3.4%.
In the case of `C=CCN1C(=O)C(Cc2ccc(C)cc2)S/C1=N\N=C\c1ccco1` (stereo not given), the displacement was -13.1%.
In the case of `Cc1ccc(C)c(NC(=O)c2ccc(C)c([N+](=O)[O-])c2)c1`, the displacement was 10.9%.
Molecule `COc1ccc(C2CC(c3cccs3)=NN2c2ccc(F)cc2)cc1OC` (stereo not given) has a displacement of 9.8%.
Work on `Oc1oc(-c2ccccc2)nc1C=Nc1ccc(I)cc1` yielded a displacement of 2.6%.
With `CCc1ccc(NC(CC(=O)c2ccc(OC)cc2)c2ccc(OC)cc2)cc1` (stereo not given) the displacement was -20.1%.
`COc1cc(C2C3=C(CC(C)(C)CC3=O)OC3=C2C(=O)CC(C)(C)C3)ccc1OCc1cc2c(cc1Cl)OCO2` showed a displacement of 0.5%.
With `Cc1cccc(OCCn2ccnc2)c1C` the displacement was 5.3%.
Work on `O=C(OCc1ccccc1)Sc1nc2ccccc2[nH]1` yielded a displacement of 9%.
In the case of `CCc1c(C)nc2cc(-c3ccc(Cl)cc3)[nH]n2c1=O`, the displacement was 5.6%.
`COc1ccc(CNC(=O)CSc2nc3ccccc3s2)cc1` was tested, and the displacement was 11.2%.
`NC1=NC(=O)/C(=C/c2cc(Br)ccc2OS(=O)(=O)c2ccc([N+](=O)[O-])cc2)S1` showed a displacement of 12.7%.
With `COc1ccc(C(=O)n2cnc3cc(C)c(C)cc32)cc1[N+](=O)[O-]` the displacement was 15.4%.
In the case of `O=C(O)C(Cc1ccccc1)N1C(=O)/C(=C/c2cccc([N+](=O)[O-])c2)SC1=S` (stereo not given), the displacement was 8.1%.
`C=CCOC(=O)C1=C(C)NC2=C(C(=O)CC(C)(C)C2)C1c1ccccc1Cl` (stereo not given) showed a displacement of 4.7%.
`O=C(O)CN1C(=O)/C(=C/c2ccccc2OCc2ccc([N+](=O)[O-])cc2)SC1=S` was tested, and the displacement was 15.4%.
Work on `CC1CCCC(C)N1C(=O)c1ccc(F)cc1F` (stereo not given) yielded a displacement of -1.8%.
`CC(=O)C1=C(C)NC2=C(C(=O)CC(C)(C)C2)C1c1cccc([N+](=O)[O-])c1` (stereo not given) was tested, and the displacement was 13.5%.
`COc1ccc2c(OC)c3ccoc3nc2c1OC` was tested, and the displacement was -1.5%.
